# Test results published in the supplement of paper PMC3334620.
# In all, about 33,000 sequences were measured (“E-score (-0.5 to 0.5)”: median about -0.035, highest 2% from about 0.35 on). Some of the results follow.
# Biological target: T1, Pdr3 (UniProt P33200)
# T1 sequence: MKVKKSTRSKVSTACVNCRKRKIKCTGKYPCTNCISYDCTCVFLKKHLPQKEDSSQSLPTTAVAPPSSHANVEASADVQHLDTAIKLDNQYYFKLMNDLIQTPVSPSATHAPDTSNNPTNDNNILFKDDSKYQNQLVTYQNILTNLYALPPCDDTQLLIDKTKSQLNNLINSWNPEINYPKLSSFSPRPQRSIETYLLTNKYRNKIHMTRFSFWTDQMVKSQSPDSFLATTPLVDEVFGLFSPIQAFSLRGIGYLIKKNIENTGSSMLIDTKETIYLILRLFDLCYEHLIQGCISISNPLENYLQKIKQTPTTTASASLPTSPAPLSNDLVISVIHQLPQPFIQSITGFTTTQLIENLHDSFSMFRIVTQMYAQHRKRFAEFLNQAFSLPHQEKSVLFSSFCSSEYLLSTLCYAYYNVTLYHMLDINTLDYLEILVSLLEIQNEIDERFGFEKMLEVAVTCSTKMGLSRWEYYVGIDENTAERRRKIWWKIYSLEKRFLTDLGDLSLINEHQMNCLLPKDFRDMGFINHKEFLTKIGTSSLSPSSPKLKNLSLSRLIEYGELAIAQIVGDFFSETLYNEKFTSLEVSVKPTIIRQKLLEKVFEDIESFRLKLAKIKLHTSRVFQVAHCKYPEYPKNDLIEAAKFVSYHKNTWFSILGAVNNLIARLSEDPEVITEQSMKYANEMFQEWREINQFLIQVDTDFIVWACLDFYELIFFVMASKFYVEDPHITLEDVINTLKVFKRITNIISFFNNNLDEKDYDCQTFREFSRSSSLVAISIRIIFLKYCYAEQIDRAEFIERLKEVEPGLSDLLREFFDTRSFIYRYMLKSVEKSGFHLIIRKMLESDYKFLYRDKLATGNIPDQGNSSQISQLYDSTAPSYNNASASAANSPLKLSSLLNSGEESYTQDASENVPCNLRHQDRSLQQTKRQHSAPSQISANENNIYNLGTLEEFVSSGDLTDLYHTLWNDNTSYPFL
# Assay: PBM E-score (8-mer binding enrichment) (E-score (-0.5 to 0.5)); higher = stronger / more preferred TF binding; most listed sequences are background and not binding sites
# Conditions: protein concentration: 200 nM; construct: GST-full length
# Summary of the method: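 E-scores (a modified Wilcoxon-Mann-Whitney statistic) were assigned by the Universal PBM Analysis Suite to every ungapped eight-base word pooled with its reverse complement. The input came from universal all-10-mer Agilent arrays made double-stranded by primer extension and probed with GST-tagged yeast transcription factors at about 100-200 nM. Fluorescent anti-GST detected bound protein, and masliner normalised the scans.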
row,Sequence,PBM E-score
1,CTTGGACA,-0.0848
2,AGCCCTAT,-0.145
3,CTTACACC,-0.124
4,AAAAACAT,-0.121
5,GACCAAAC,-0.0395
6,TAGTCCGA,0.11
7,GCTCAGCA,-0.114
8,AAGTATTA,-0.148
9,ACACCCGC,0.266
10,CCTGAGGA,0.00848
11,CAAGTGGA,-0.216
12,AAACTTTA,0.00534
13,AGCCGGAT,0.391
14,CACAACAA,-0.0956
15,AATCTGGT,0.0738
16,CGTACTAC,0.0384
17,GAAACTTA,0.115
18,CGTAGAAA,-0.105
19,AGTTTTTA,-0.308
20,AGGAAGCA,-0.16
21,AGATTCAT,-0.0927
22,CAGTCGCC,-0.142
23,TGAACCCA,-0.0442
24,ACAGCCAC,0.106
25,CACCCTGG,-0.197

row,Sequence,PBM E-score
1,CCTCATGC,-0.177
2,AGGGCACT,-0.224
3,ATCTCTTG,-0.289
4,CTCCCATA,-0.31
5,GCTACGCC,-0.223
6,GAGGGAAA,-0.163
7,ATTGCAGA,-0.066
8,CCGTAACC,0.211
9,AGAGGAGC,-0.211
10,CCGCGAAC,0.228
11,AACAGTTA,0.0467
12,ACGCGCCG,0.229
13,AATCCATG,0.0174
14,AAATTCAT,-0.0189
15,ATCGTCCG,0.339
16,ACTTCATG,-0.0932
17,CACCCGTA,0.151
18,ATACCCCC,0.00568
19,CGGGAAAC,0.309
20,AGGCTCAG,-0.266
21,CCTAGGTA,-0.174
22,GGCGGAAA,0.361
23,CCCAGACG,-0.133
24,ACTCTGAG,-0.239
25,CGGTCGTC,-0.0408

row,Sequence,PBM E-score
1,ACCATGGT,-0.282
2,CCCCTTTA,-0.319
3,CCCCCACC,-0.24
4,ATACTCTC,-0.0285
5,CACGGGAA,0.223
6,GAGAACCA,-0.0398
7,AAGAGAAG,-0.158
8,AGCGTTGC,0.0508
9,AGTCAGAG,-0.0475
10,TAATCGCA,-0.092
11,CAACGGCG,0.176
12,AGTGTTGC,-0.0478
13,GGAGTCCA,0.00397
14,TAATTAAA,-0.00203
15,ATCATTGG,-0.173
16,CATCCCTC,0.0487
17,TAAATGCA,0.00746
18,TGAACGAA,-0.195
19,CAAGTGAA,-0.0585
20,ATACACCC,0.138
21,ACTCCGCC,0.343
22,ACTCACCC,0.205
23,TAGAACGA,-0.204
24,AATATGTA,-0.019
25,AGGTTCGC,-0.0471

row,Sequence,PBM E-score
1,ACGACAGG,-0.0216
2,GCTCAGGA,-0.191
3,AAAGTGTT,0.0165
4,ACGAAGTA,-0.136
5,CGTTTTAG,-0.195
6,GGACCACA,0.157
7,AGGTTCCA,-0.018
8,AATGCGGT,0.116
9,CCTCCAGA,0.00494
10,AGGCAGAT,-0.0983
11,ACTCGGGG,0.0393
12,GGACTGTA,-0.07
13,CGGCAAAC,0.285
14,ACATCGCT,-0.144
15,CGGGGTGA,0.214
16,AGCGAGGC,-0.0299
17,AAGCGTAC,-0.244
18,ATAGGATG,-0.0644
19,AATCTATA,-0.0326
20,GCGAGTTA,-0.0865
21,CAGCTTCG,-0.0885
22,GACTTCGA,-0.315
23,CGCAACCG,0.231
24,GATTTAGA,0.0216
25,CACGTACA,-0.202

row,Sequence,PBM E-score
1,AGTCCGCC,0.324
2,ATAGTAAG,-0.218
3,AAAACCTC,0.159
4,CGCCCTGC,0.137
5,GAGGGAGA,-0.2
6,ATTAAGCA,-0.112
7,CAGTGCTC,-0.213
8,TCGGTGAA,0.0249
9,AAGCTTAC,-0.251
10,TAACATGA,-0.188
11,AGCCTACG,-0.0473
12,CATTGGAC,-0.0109
13,CGTAAATC,0.0612
14,CGAGGTTA,0.113
15,CCTTTTTA,-0.199
16,TGAGGCCA,-0.0241
17,ACTGTGCA,-0.172
18,CCTGGTGC,-0.0048
19,GCGGAGGA,0.176
20,AAACGGAA,0.469
21,ACGCGTGG,0.127
22,CCAGACGC,-0.232
23,CAACTAAC,0.126
24,CCTATGGA,-0.127
25,ATGTGTAC,-0.128

row,Sequence,PBM E-score
1,AGCACTAC,-0.222
2,ATGAGCTG,-0.0649
3,ACCCTGCG,0.0171
4,AAGTGCCT,-0.279
5,CAACCGGC,0.232
6,ATTAGCTA,-0.00451
7,ATTCGCCC,0.043
8,ATAGCGCC,0.0818
9,CAAGCAGA,-0.0291
10,AACCTAAC,0.0498
11,AAGGTGGG,-0.203
12,TGCCCAAA,-0.0904
13,CCAGATAA,0.00642
14,GGCATTTA,-0.0223
15,ATACCCTG,-0.076
16,AGAATAAG,-0.0601
17,CCTGTAGA,-0.022
18,GCCATCTA,-0.118
19,AGATCAAA,-0.112
20,CTAAGCCA,-0.265
21,CTGAGTAA,-0.175
22,ATAATAAC,0.0962
23,ACTCCACG,0.00846
24,AAATGAAG,0.0448
25,AACGCGCA,-0.0898

row,Sequence,PBM E-score
1,ACTGCTGA,-0.261
2,ACAAACCA,-0.138
3,AGTTGGAC,-0.109
4,CTCCTTGA,-0.203
5,ACCAAGCT,-0.157
6,CATGTTGG,-0.273
7,GGCAATCA,0.017
8,CACCAGGG,-0.192
9,ACGAGTAT,-0.0786
10,AGTCCCAG,-0.108
11,AAAAAATT,-0.00567
12,CCGTTAAC,0.221
13,GGGCCGCA,0.126
14,GACTGGGC,-0.214
15,GAATACTC,-0.0365
16,ATACGAGA,-0.289
17,ACGTGGGG,-0.0273
18,CGATCTGC,0.137
19,GCGAGGTA,-0.104
20,GTCGATGA,0.0203
21,CCGAGGCC,0.227
22,CAACTGTC,-0.0666
